In PubChem BioAssay AID1159614 (National Center for Advancing Translational Sciences (NCATS), 2016):
The campaign covered roughly 45,000 compounds. About 65 (0.1%) were called active. Calls come from the whole dose curve; as a rule, active = well fitted activation curve with a large enough effect; inconclusive = small, poorly fitted or top-dose-only effect; inactive = no such curve, though single readings can be large or run the other way. This is one part of the list.

target: Galactocerebrosidase (Homo sapiens) (UniProt P54803); assay: A Novel Cell-Based Assay to Identify Small Molecules for B -Galactocerebrosidase; details: 145M-Twi-hGALC-G270D cells (Twitcher mouse brain line with human GALC G270D), HMU-beta-Gal fluorescence, 48 h; series mostly up to 57.5 µM; activation: at the top concentration; note: 0% is about no effect; nearly all actives have a fitted effect of over 65% in size
Method in brief: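 Brain-derived Twitcher mouse 145M-Twi cells stably expressing human GALC-G270D or wild-type GALC, treated live, then residual GALC activity read by fluorescence of HMU-b-Gal substrate (0.1 mM final) in citrate-phosphate buffer pH 5.2 with sodium taurocholate. Signal increase indicates enhancement.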

UniProt P54803, sequence (P54803 whole entry, looked up): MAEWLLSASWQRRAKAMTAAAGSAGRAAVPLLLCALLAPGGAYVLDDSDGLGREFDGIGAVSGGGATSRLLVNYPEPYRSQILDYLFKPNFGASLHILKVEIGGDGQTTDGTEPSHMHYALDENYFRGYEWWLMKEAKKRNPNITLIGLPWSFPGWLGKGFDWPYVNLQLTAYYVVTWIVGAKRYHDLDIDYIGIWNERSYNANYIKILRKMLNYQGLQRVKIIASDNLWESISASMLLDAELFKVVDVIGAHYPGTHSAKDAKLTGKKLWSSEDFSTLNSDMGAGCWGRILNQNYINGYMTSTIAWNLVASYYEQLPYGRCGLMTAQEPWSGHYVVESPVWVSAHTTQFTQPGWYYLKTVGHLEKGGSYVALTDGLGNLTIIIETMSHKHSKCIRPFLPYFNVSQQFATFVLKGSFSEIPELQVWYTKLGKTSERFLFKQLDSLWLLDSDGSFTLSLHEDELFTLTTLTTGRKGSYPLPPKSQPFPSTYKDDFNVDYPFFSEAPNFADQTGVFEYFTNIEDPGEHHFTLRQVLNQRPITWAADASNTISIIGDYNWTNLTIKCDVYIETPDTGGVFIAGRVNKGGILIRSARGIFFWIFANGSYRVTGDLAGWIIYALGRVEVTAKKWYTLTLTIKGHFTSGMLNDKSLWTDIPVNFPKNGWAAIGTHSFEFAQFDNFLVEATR

activation, inactive:
CCc1nnc(NC(=O)CSc2nccn2-c2ccc(OC)cc2)s1 -8.33%
CSc1ccc(CCNC(=O)c2cnc3c(C)cccn3c2=O)cc1 -35%
Cc1ccc(C)c(CN2C(=O)c3ccccc3S(=O)(=O)c3ccc(C(=O)N(C)C4CCCCC4)cc32)c1 -12.2%
CC(=O)c1cc2c(cc1N/C(=N/S(=O)(=O)c1ccc(Cl)cc1)c1ccc(F)cc1)OCO2 -10.4%
Cc1nc(C)c(-c2ccc(SCC(=O)Nc3ccc(Br)cc3)nn2)s1 0.546%
CC(=O)c1cccc(-n2c(=O)c3c4c(sc3n(CC(=O)c3ccccc3)c2=O)CN(C(C)=O)CC4)c1 -16.3%
CC1CCCN(CCCNC(=O)c2ccc3c(c2)N(Cc2ccccc2F)C(=O)c2ccccc2S3(=O)=O)C1 (stereo not given) 0.757%
COc1cc(C(=O)Oc2c(Sc3ccccc3)c(C)nn2-c2ccccc2)cc(OC)c1OC -17.7%
CCc1ccccc1NC(=O)Nc1c[nH]c(=O)[nH]c1=O -7.72%
Cc1ccc(C)c(N2CCN(C(=O)c3ccc(NC(=O)c4nsc5ccccc45)cc3)CC2)c1 -3.32%
Cc1ccc(CNC(=O)CCCCCn2c(=O)[nH]c3ccccc3c2=O)cc1 -16.3%
Cc1nn(-c2ccccc2)c(OC(=O)C(C)C)c1Sc1ccc(Cl)cc1 -14%
Cc1ccc(/C=C/c2onc(C)c2S(=O)(=O)N2CCC(C(=O)Nc3ccc(C)c(N(C)C)c3)CC2)cc1 -11.3%
CCOc1ccc(N2CC(NC(=O)CCc3ccccc3)CC2=O)cc1 (stereo not given) -3.8%
CC(C)(C)c1ccc(NC(=O)C2CCCN(c3cnccn3)C2)cc1 (stereo not given) -8.94%
Cc1ccccc1-c1nc(CN2CCC(C(=O)NCc3ccccc3Cl)CC2)c(C)o1 -7.9%
Cc1ccccc1OCCSc1nnc(-c2ccc([N+](=O)[O-])cc2)o1 -6.81%
O=C(NCC(c1ccc2c(c1)OCO2)N1CCOCC1)C(=O)Nc1ccc(Cl)cc1 (stereo not given) -9.4%
Oc1cccc(-c2nc(-c3cccs3)c(-c3cccs3)[nH]2)c1 -9.65%
CC(=O)CC(c1ccccc1)c1c(O)c2ccccc2oc1=O (stereo not given) -14.2%
CCCN(CCC)CCCNC(=O)c1sc2nc3n(c(=O)c2c1C)CCC3 -13.1%
CCCCC(CC)CNC(=O)CC(C)OC(=O)CCC(=O)O (stereo not given) -13.5%
CCC1CCCCN1CCCNC(=O)c1sc2nc(C)cc(C)c2c1-n1cccc1 (stereo not given) 19.7%
COc1ccccc1NC(=O)c1cc2c(n(-c3ccc(C)cc3)c1=O)CC(C)(C)CC2=O -9.78%
COc1ccc(CNC(=O)CSCc2ccc(C)cc2)c(OC)c1 -13.1%
CCc1cc2c(cc3c(=O)n(CC(=O)NC(C)C)nc(CC)n32)s1 -7.4%
O=C(c1ccc2c(c1)N(Cc1cccc(Cl)c1)C(=O)c1ccccc1S2(=O)=O)N1CCN(Cc2ccccc2)CC1 -21.5%
COc1ccc(CNC(=O)C2=Cc3cccc(OC)c3OC2)cc1OC -3.1%
O=C(Nc1ccc(F)cc1F)c1cc(CN2CCOCC2)on1 -9.74%
COc1ccc(OC)c(NS(=O)(=O)c2ccc3c(c2)CCCN3C(=O)C2CCC2)c1 3.69%
NS(=O)(=O)c1cc2c(cc1Cl)NC(C1CC3C=CC1C3)NS2(=O)=O (stereo not given) -16.2%
COc1ccc(CNC(=O)Cn2c(=O)n3nc(-c4cccc(F)c4)nc3c3ccccc32)cc1OC -17.1%
O=C1NS(=O)(=O)c2ccccc21 -8.37%
CCc1ccc(NC(=O)c2ccc(F)c(S(=O)(=O)N3CCc4ccccc4C3)c2)cc1 -13.3%
Cc1cccc(NC(=O)C(Cc2ccccc2)N2Cc3ccccc3C2=O)c1C (stereo not given) -8.68%
CCc1nn(CC(=O)NCCN(CC(C)C)CC(C)C)c(=O)c2cc3sc(C)cc3n12 -9.29%
COc1cccc(C(c2sc3nc(-c4ccco4)nn3c2O)N2CCC3(CC2)OCCO3)c1 (stereo not given) 2.05%
CCc1ccc(CNC(=O)c2ccc(-n3c(C)cc4c3CCC(C)C4)cc2)cc1 (stereo not given) -23.2%
COc1cc(Br)c(C2CC(=O)Nc3cc4c(cc32)OCCO4)cc1OC (stereo not given) 17.5%
Cc1ccc(S(=O)(=O)Nc2ccc3c(c2)CCCN3C(=O)c2cccs2)cc1C -22.9%
Oc1ccccc1-c1nc2ccc(Cl)cn2c1Nc1ccc2c(c1)OCCO2 -29.5%
O=C(Nc1c(C(=O)N2CCN(c3ccccc3F)CC2)oc2ccccc12)c1ccc(Br)o1 -20.3%
COc1ccc(-c2ccc(=O)n(CC(=O)Nc3ccccc3C(F)(F)F)n2)cc1 -9.86%
CCS(=O)(=O)N1CCc2cc(C(=O)Nc3cccc(NC(C)=O)c3)ccc21 -2.51%
COc1ccc(-c2nc(CSc3nnc(C)n4c3cc3sccc34)c(C)o2)cc1 -0.976%
Cc1ccc(C2c3[nH]c4ccccc4c3CCN2C(=O)CSc2ccccc2)cc1 (stereo not given) -41.5%
CSc1cccc(NC(=O)C2CCCN(S(=O)(=O)c3ccc4c(c3)CCCN4C(C)=O)C2)c1 (stereo not given) -14%
Cn1c(=O)oc2cc(S(=O)(=O)N3CCCC(C(=O)N4CCN(c5ccc(F)cc5)CC4)C3)ccc21 (stereo not given) -5.66%
CCc1nn2c(=O)cc(COC(=O)c3ccccc3NC(=O)c3ccc(C(C)(C)C)cc3)nc2s1 -17.9%
Cc1ccccc1OCC(=O)Nc1nnc(S(=O)(=O)N2CCCCCC2)s1 -22.2%
CC(Oc1ccc(Br)cc1)C(=O)N(Cc1nc(-c2ccccc2)no1)C(C)C (stereo not given) 6.07%
O=C(NCCCN1CCN(c2ccccc2)CC1)c1ccc2nc(CCc3ccccc3)oc2c1 -10.6%
CN(C)CCCOC1(Cc2ccccc2)CCCCCC1 -10.3%
Cc1ccc(-n2c(-c3cccc(C)c3)nc3c(cnn3-c3ccccc3)c2=O)cc1 -15.1%
COc1ccc(Cl)cc1NC(=O)NCc1noc2ccccc12 -13.8%
COc1ccc(CCNC(=O)CCCn2c(=O)c3ccccc3n(CC(=O)Nc3ccc(C)cc3Cl)c2=O)cc1OC 0.702%
Cc1nn2c(=O)cc(COC(=O)C(c3ccccc3)c3ccccc3)nc2s1 -7.88%
COc1ccc(CNC(=O)c2cc3c(=O)[nH]c4ccccc4c3n2C)c(OC)c1 -17%
Cc1ccc2c(c1)N(C(=O)N1CCC(C(=O)NCc3cccs3)CC1)CC(C)O2 (stereo not given) -12.6%
Cc1ccc(-c2c(C(=O)N(C)Cc3ccccc3)oc(=O)c3ccccc23)cc1 0.914%
Cc1cccc(N(CC(=O)NCCSc2ccc(Cl)cc2)S(C)(=O)=O)c1C -7.9%
Cc1cccc(-c2nc(C)c(CCNC(=O)c3cccs3)s2)c1 3.56%
O=C(NCC(c1cccnc1)N1CCc2ccccc2C1)C(=O)Nc1ccc(F)cc1F (stereo not given) -20.2%
O=C(CN1CCCN(Cc2cccc(F)c2)S1(=O)=O)Nc1ccc2c(c1)OCCO2 -6.09%
COC(=O)c1nnn(-c2ccc(Cl)cc2)c1C(=O)OC -14.8%
O=C(CCS(=O)(=O)c1nc(-c2ccc3c(c2)OCO3)cc(C(F)(F)F)n1)Nc1ccc(F)cc1F -24%
CCS(=O)(=O)c1ncc(Cl)c(C(=O)Nc2c(C(=O)c3ccc(C)cc3)oc3ccccc23)n1 -8.68%
Cc1ccc(-n2ncc(C(=O)N3CCN(C(=O)c4ccco4)CC3)c2C2CCN(C(=O)OC(C)(C)C)CC2)cc1 -16.6%
CC(C)c1ccc(NC(=O)CCNS(=O)(=O)c2ccc3c(c2)oc(=O)n3C)cc1 -13.8%
Cc1ccc(NC(=O)C2CCN(C(=O)c3cnn(-c4ccccc4)c3-n3cccc3)CC2)cc1C -12.2%
Cc1cccc(CCNC(=O)c2nn(C)c3c2CSc2ccccc2-3)c1 1.15%
O=C(c1ccc2c(c1)N(Cc1cccc(Cl)c1)C(=O)c1ccccc1S2(=O)=O)N1CCCCCC1 -16.4%
COc1cccc(-c2cn3c(n2)sc2cc(C(=O)NCCC4=CCCCC4)ccc23)c1 -17%
O=C(CSc1oc(-c2ccc(F)cc2)nc1S(=O)(=O)c1ccc(Cl)cc1)c1ccccc1 -29%
COc1ccc(-c2cc(C(F)(F)F)n3nc(C(=O)Nc4sc5c(c4C(=O)OC(C)C)CCCC5)cc3n2)cc1OC -20.6%
COc1ccc(N2CCN(C(CNC(=O)c3cccc(OC)c3)c3cccnc3)CC2)cc1 (stereo not given) -14.4%
NC(N)=NC(=O)c1nc(Cl)c(N)nc1N -13.8%
CCc1ccc(CNc2ncnc3onc(-c4ccc(Cl)cc4)c23)cc1 0.958%
CCOc1ccc(CN(C(=O)c2cc(=O)c3cc(Cl)ccc3o2)C2CCS(=O)(=O)C2)cc1 (stereo not given) -16.5%
CCCCOC(=O)c1c(C)oc2ccc(NS(=O)(=O)c3ccc(F)cc3C)cc12 -25.9%
Cn1c(C(=O)N2CCCC(C(=O)N3CCN(c4ccccc4)CC3)C2)cc2sccc21 (stereo not given) -10.3%
COc1ccc(NC(=O)Cn2c(=O)n(-c3ccc(C)c(C)c3)c(=O)c3c4c(sc32)CCCCC4)cc1Cl -33.2%
CCc1ccc(NC(=O)CSc2cn(CC(=O)N3CCOCC3)c3ccccc23)cc1 -4.1%
CCN(CC)C(=O)C1CCN(c2cc(C)nc3c(-c4ccc(OC)c(OC)c4)c(C)nn23)CC1 -6.47%
COc1ccccc1NC(=O)C1=C(C)Nc2c(C(=O)Nc3cccc(C)c3)cnn2C1c1ccccc1C (stereo not given) -8.87%
O=C(CCn1c(=O)c2cccn2c2cccnc21)NCc1ccc(Cl)cc1 6.4%
COC(=O)c1ccc(NC(=O)C(=O)NCCc2sc3nc(-c4ccc(OC)cc4)nn3c2C)cc1 -6.02%
COc1cc2c(cc1OC)n(CC(=O)Nc1ccccc1)c(=O)n1nc(-c3ccccc3)nc21 -4.64%
Cc1ccc(/C=C/c2nc3ccccc3n2S(=O)(=O)c2cccc(Cl)c2)cc1 -5.72%
CC(CC(=O)NCc1ccc(Cl)cc1Cl)CC1=NS(=O)(=O)c2ccccc2N1 (stereo not given) -4.32%
O=c1oc2c(O)c(O)cc3c(=O)oc4c(O)c(O)cc1c4c23 -15.7% [at 23.8 µM]
COc1ccc(CCNC(=O)c2cc(=O)c3c(C)cc(C)cc3o2)cc1OC -11.6%
Cc1ccc(Nc2nc3c(S(=O)(=O)c4ccccc4)nnn3c3ccc(Cl)cc23)c(C)c1 -15.4%
COc1cc2nc(Nc3ccc(C)c(C)c3)nc(N)c2cc1OC -16.5%
Cc1cccc(OC(=O)c2nc(SCc3ccccc3F)ncc2Cl)c1 20.4%
